A collection of fitness landscapes (doi:10.1016/j.celrep.2020.107928)
Whole data set: some 81,000 sequences, median “one-hybrid fitness for binding parS DNA” near -0.17, cut for the highest 2% near 0.51. Some of the results follow.

B1: Caulobacter ParB omega fusion; a variant is named by its letters at X, in order, B8GW30 (parent)
chain: MESVVVGEPGMSEGRRGLGRGLSALLGEVDAAPAQAPGEQLGGSREAPIEILQRNPDQPRRTFREEDLEDLSNSIREKGVLQPILVRPSPDTAGEYQIVAGERAWRAAQRAGLKTVPIMVRELDDLAVLEIGIIENVQRADLNVLEEALSYKVLMEKFERTQENIAQTIGKSXSHVANXMRLLXLPDEVQSYLVSGELTAXHARAIAAAADPVALAKQIIEGGLSVRETEALARKAPNLSAGKSKGGRPPRVKDTDTQALESDLSSVLGLDVSIDHRGSTGTLTITYATLEQLDDLCNRLTRGI

Variants of: B1
Test: one-hybrid fitness for binding parS DNA (scaled: cognate 1, non-cognate 0); higher = stronger binding
Settings: with parS DNA site
Outline: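 Fitness here means the log change in variant-to-wild-type read ratio between plasmids sequenced before and after selection. That scale was set so cognate equals 1 and non-cognate equals 0. The selection was a bacterial one-hybrid screen of Caulobacter ParB libraries, four specificity codons randomised, in E. coli USO carrying a HIS3 reporter with the site 19 bp from the promoter, grown 48 hours at 37°C on M9-minus-histidine with 0.1 mM IPTG and 5 mM 3-AT.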

one-hybrid fitness for binding parS DNA, 0.348:
RYEN

one-hybrid fitness for binding parS DNA, 0.492:
RICY

one-hybrid fitness for binding parS DNA, 0.532:
RQFA

one-hybrid fitness for binding parS DNA, 0.883:
RSKS

one-hybrid fitness for binding parS DNA, ≤ 0.2:
LILY
DETG
STRS
TMKW
HVSR
EYTG
HRQY
HISE
HIHC
FSSG
MSTM
GKRV
HMPG
NTTR
NYWT
CNGR
TAGK
CPIT
AVRM
AIAS
LYAW
RAHQ
GHPN
MGLS
RPKF
HLYV
GFWM
ANHV
PPFR
GLAM
FQSA
GGAT
NLAP
RGIQ
PFMM
TAYT
LWVR
AVGL
APNG
HFQS
WPNH
PHDM
QEHL
WQRY
TELG
NVCC
MAPW
HRQM
KLQS
SYDV
EPTM
SSGC
RYHI
YEKR
TGVI
SMLY
GIHC
VKRW
PSVY
FHAR
EARK
PIHP
RYHD
NREC
MFWS
NCAW
SFHR
YTHE
GMKI
QGYA
SIWC
LMCR
HQVS
GEMS
GFPS
PPRC
SAEL
FPSL
RDWR
DQMT
VRRT
EKGT
RETD
GVHG
PDRW
MLVR
HSYW
SINK
VTRF
ERPD
PGCC
DTYT
PSEE

one-hybrid fitness for binding parS DNA, 0.246:
RALF
